PubChem BioAssay AID1030 (National Center for Advancing Translational Sciences (NCATS), 2008)
The whole screen tested about 220,000 compounds, of which about 16,000 (7.3%) were called active. Inconclusive results, whose numbers are uncertain, are shown with a selection of clear calls. Calls come from the whole dose curve; as a rule, active = well fitted inhibition curve with a large enough effect (not every such curve was filed as active); inconclusive = small, poorly fitted or top-dose-only effect, or another doubt; inactive = no such curve, though single readings can be large or run the other way. No potency is given beside an inconclusive call; the fits are too rough.

target: Aldehyde dehydrogenase 1A1 (Homo sapiens) (UniProt P00352); assay: qHTS Assay for Inhibitors of Aldehyde Dehydrogenase 1 (ALDH1A1); details: Purified ALDH1A1, NADH fluorescence, propionaldehyde substrate; series mostly up to 75.3 µM;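 for activity, negative = inhibition: plate controls were no enzyme wells and a reference inhibitor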
Potency is the fitted concentration of half-maximal effect; tags give direction and shape of the fitted curve.

Sequence of UniProt P00352 (P00352 whole entry, looked up): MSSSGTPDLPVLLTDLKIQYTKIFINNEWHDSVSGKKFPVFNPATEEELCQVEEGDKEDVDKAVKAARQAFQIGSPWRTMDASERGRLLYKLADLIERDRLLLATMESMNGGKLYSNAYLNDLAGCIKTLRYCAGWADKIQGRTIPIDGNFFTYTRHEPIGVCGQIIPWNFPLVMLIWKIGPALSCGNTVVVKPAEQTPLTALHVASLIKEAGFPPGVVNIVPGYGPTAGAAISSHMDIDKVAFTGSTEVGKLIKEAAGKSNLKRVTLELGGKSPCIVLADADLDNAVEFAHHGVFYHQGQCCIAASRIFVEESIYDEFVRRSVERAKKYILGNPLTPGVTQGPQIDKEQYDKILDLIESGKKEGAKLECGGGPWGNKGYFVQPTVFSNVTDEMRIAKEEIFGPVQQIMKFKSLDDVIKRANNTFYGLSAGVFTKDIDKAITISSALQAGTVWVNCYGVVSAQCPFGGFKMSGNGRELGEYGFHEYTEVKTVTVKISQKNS

| SMILES | Potency | activity, negative = inhibition |
| --- | --- | --- |
| CC(NC(=O)NCCCn1ccnc1)(C(F)(F)F)C(F)(F)F | inactive |  |
| O=C(Cn1c(=O)sc2ccccc21)N1CCOCC1 | inactive |  |
| CCOC(=O)/C(C#N)=C/c1cn(CCC(=O)O)nc1-c1ccc(Cl)cc1 | inactive |  |
| O=S1(=O)c2cccc3cccc(c23)N1Cc1nnc(-c2ccccc2Br)o1 | inconclusive [inhibitor, single point] |  |
| Cc1cc2c(cc1C)-c1nnnn1C(C)(C)C2 | active: 7.08 µM |  |
| CCOc1cc(C)c(C(C)C)cc1S(=O)(=O)n1cnc(C)c1 | inconclusive [inhibitor, single point] |  |
| CN(C)CCC=C1c2ccccc2C=Cc2ccccc21 | inactive |  |
| CC(C)Nc1nc(NC(C)C)nc(N(C#N)CCOc2ccc(Cl)cc2Cl)n1 | inactive |  |
| CCCc1ccc(OC(=O)c2cccs2)cc1 | inactive |  |
| CC(=O)c1cccc(NC(=O)c2onc(C)c2Cl)c1 | inconclusive [inhibitor, single point] |  |
| Cc1nnsc1C(=O)NNc1ccc(C(C)(C)C)cc1 | active: 31.6 µM |  |
| COc1ccc(Cl)cc1NC(=O)N1CCN(C2CCCCC2)CC1 | inactive |  |
| Cc1ccc(C(=O)Nc2cccc(S(=O)(=O)N3CCOCC3)c2)cc1[N+](=O)[O-] | inconclusive [inhibitor, single point] |  |
| Cc1cc(SCC(=O)c2ccccc2)nc(SCC(=O)c2ccccc2)n1 | inconclusive [inhibitor, partial curve] |  |
| CC(NC(=O)Nc1ccc([N+](=O)[O-])cc1)C(c1ccccc1)N1CCOCC1 (configuration not stated) | active: 2.51 µM |  |
| c1ccc(CCc2nn3c(-c4ccncc4)nnc3s2)cc1 | active: 10 µM |  |
| Cc1ccc(OC(=O)CCC(=O)NC(C)c2ccccc2)cc1 (configuration not stated) | inconclusive [inhibitor, single point] |  |
| CC(C)CNc1nc(N)[nH]c(=O)c1NC=O |  | inactive: 21.6% [at 13.5 µM] |
| COc1ccccc1C1CC(=O)Oc2ccc(C(C)(C)C)cc21 (configuration not stated) | inactive |  |
| CCOC(=O)N1CCC(N2CCN(S(=O)(=O)c3ccc4ccccc4c3)CC2)CC1 | inconclusive [inhibitor, single point] |  |
| COCCOC(=O)c1c(C)n(C)c2ccc(OC(=O)C3CC3)cc12 | active: 10 µM |  |
| O=C(OCC#CCSc1nnc(-c2ccc(Br)cc2)o1)c1cccs1 | inconclusive [inhibitor, single point] |  |
| Cc1nn(C(C)(C)C)c(NC(=O)c2ccc(Cl)cc2)c1Br | inactive |  |
| COc1ccc(OCCSc2nc(N)cc(N)n2)cc1 | inconclusive [inhibitor, single point] |  |
| O=C(Nc1ccc2c(c1)OCO2)c1ccc(Br)c(S(=O)(=O)N2CCCC2)c1 | inconclusive [inhibitor, single point] |  |
| O=c1[nH]c2ccc(Cl)cc2c(O)c1Cc1ccccc1 | inconclusive [inhibitor, partial curve] |  |

| SMILES | Potency | activity, negative = inhibition |
| --- | --- | --- |
| CCOc1ccc(-n2c(O)c(/C=N/NC(=O)C3COc4ccccc4O3)c3ccccc3c2=O)cc1 (configuration not stated) | inactive |  |
| CNC(=O)NC(=O)C(OC(=O)c1cccc(S(=O)(=O)N2CCCCC2)c1)c1ccccc1 (configuration not stated) | inconclusive [inhibitor, full curve] |  |
| O=C(CNS(=O)(=O)c1cccc(C(F)(F)F)c1)Nc1ccccc1F | active: 31.6 µM |  |
| Cc1ccccc1NC(=S)NCCc1ccccc1 | inconclusive [inhibitor, single point] |  |
| CCOC(=O)c1ccc(NCc2nc3ccccc3[nH]2)cc1 | inconclusive [inhibitor, single point] |  |
| Cc1cccc(Oc2ccc(NC(=O)c3ccccc3C(=O)O)cc2)c1C | inconclusive [inhibitor, partial curve, poor fit] |  |
| COc1ccc(C2=Nn3c(nnc3-c3ccccn3)SC2)cc1OC | inconclusive [inhibitor, single point] |  |
| Cc1ccc(C(=O)CNc2cccc([N+](=O)[O-])c2)cc1 | active: 12.6 µM |  |
| CCOc1ccc(C2C(C(=O)c3ccc(C)o3)=C(O)C(=O)N2CCN2CCOCC2)cc1OC (configuration not stated) | inconclusive [inhibitor, single point] |  |
| Cc1ccc(NC(=O)CSc2nnc(-c3n[nH]c4ccccc34)n2-c2ccccc2)c(C)c1 | active: 20 µM |  |
| O=C(C1CCN(c2nc3nonc3nc2N2CCCCC2)CC1)N1CCOCC1 | inconclusive [inhibitor, partial curve] |  |
| Cn1c(CNc2ccc(Cl)cc2)nnc1SCc1ccccc1 | inconclusive [inhibitor, single point] |  |
| CSc1c(-c2ccccc2)nc2ccc(Cl)cc2c1C(=O)O | inconclusive [inhibitor, single point] |  |
| Cn1ccnc1Sc1ccc(/C=N/NC(=O)c2ccccc2O)cc1[N+](=O)[O-] | inconclusive [inhibitor, single point] |  |
| O=S(=O)(NCCn1ccc2ccccc21)c1ccccc1 | inconclusive [inhibitor, partial curve] |  |
| Cc1oc2c(CN3CCCC3)c(O)ccc2c(=O)c1Oc1ccccc1Br | inconclusive [inhibitor, partial curve] |  |
| CCOC(=O)N1CCc2c(sc3nc4n(c(=O)c23)N=C(C)CS4)C1 | inconclusive [inhibitor, single point] |  |
| CCn1c(=O)c(C(=O)Nc2ccsc2C(=O)OC)c(O)c2ccccc21 | inconclusive [inhibitor, single point] |  |
| Cc1cc(C)c(C#N)c(N2CCCC(C(N)=O)C2)n1 (configuration not stated) | inconclusive [inhibitor, partial curve] |  |
| COCCn1c(SCc2nnc(-c3ccccc3)o2)nc2sc3c(c2c1=O)CCC3 | inactive |  |
| O=C(O)C1CCCCC1C(=O)NCc1cn2ccccc2n1 (configuration not stated) | inconclusive [inhibitor, single point] |  |
| CCOC(=O)COc1ccc(/C=C2\NC(=S)N(CC)C2=O)cc1 | inconclusive [inhibitor, partial curve] |  |
| CCOC(=O)c1ccc(-c2ccc(/C=N/NC(=O)CN(c3ccccc3Br)S(C)(=O)=O)o2)cc1 | inconclusive [inhibitor, partial curve] |  |
| CCn1c(C(=O)OC)cc2c1ccn2-c1ccc(F)cc1 | inconclusive [inhibitor, single point] |  |
| O=C1C(=O)N(Cc2ccc(Cl)c(Cl)c2)c2ccccc21 | active: 0.0501 µM |  |
| CCCSc1nc(N)nc(-c2cccs2)c1C#N | inconclusive [inhibitor, partial curve] |  |

| SMILES | Potency | activity, negative = inhibition |
| --- | --- | --- |
| CNC(=O)/C(C#N)=C/c1cn(CC(=O)OC)c2ccccc12 | inactive |  |
| COc1ccc(/C(N)=N/OC(=O)/C=C/c2ccccc2)cc1 | inconclusive [inhibitor, single point] |  |
| Cc1ccc(S(=O)(=O)N2CCN(C(=O)C3CCCCC3)CC2)cc1 | inconclusive [inhibitor, partial curve] |  |
| COC(=O)c1sc2nc(SCC(=O)N(C)c3ccccc3)n(N)c(=O)c2c1C | inconclusive [inhibitor, single point] |  |
| CC1=C(/C=C/C(C)=C/C=C/C(C)=C/C=C/C=C(C)/C=C/C=C(C)/C=C/C(=O)[C@]2(C)CC(O)CC2(C)C)C(C)(C)CC(O)C1 (some centres not stated) | inactive |  |
| CCNc1nc(C)c(CN(C(C)=O)c2ccccc2)nc1C#N | inconclusive [inhibitor, partial curve] |  |
| O=C1CN(C(=O)COC(=O)CNC(=O)c2ccc(Br)o2)c2ccccc2N1 | inconclusive [inhibitor, single point] |  |
| Cc1ccc(-n2c(SCC(=O)NCc3ccco3)nc3nc4c(cc3c2=O)COC(C)(C)C4)cc1 | active: 0.794 µM |  |
| S=C1NC2=C(CCCC2=C2SCCCS2)C(c2ccccc2)N1 (configuration not stated) | active: 1 µM |  |
| CCOC(=O)N1CCN(C(=O)c2ccc3nc4ccc(Cl)cc4c(=O)n3c2)CC1 | inconclusive [inhibitor, partial curve] |  |
| CC(=O)Nc1nc(C2COc3ccccc3O2)cs1 (configuration not stated) | inactive |  |
| N#Cc1cc([N+](=O)[O-])cnc1NCC(O)CO (configuration not stated) | inactive |  |
| COC(CNC(=O)c1ccc2c(c1)nc(C)n2-c1ccc(F)c(F)c1)OC | inactive |  |
| Cc1cc(C)c(NC(=O)c2sc3nc4c(cc3c2N)C(=O)CC(C)(C)C4)c(C)c1 | active: 0.251 µM |  |
| CC1CCCCC1NC(=O)COC(=O)c1ccc(N(C)C)cc1 (configuration not stated) | inactive |  |
| Cc1cc(NCc2ccco2)nc2cc(O)ccc12 | inconclusive [inhibitor, single point] |  |
| COc1ccc(S(=O)(=O)N(CC(=O)N2CCOCC2)Cc2ccccc2)cc1 | inconclusive [inhibitor, partial curve] |  |
| C[N+]1(C)CCC(=C(c2ccccc2)c2ccccc2)CC1 | inactive |  |
| COc1cc(/C=C/C(=O)O)ccc1O | inactive |  |
| O=Cc1ccc(-n2cncn2)cc1 | inconclusive [inhibitor, single point] |  |
| CS(=O)(=O)N1CCC2(CCCN(C(=O)Nc3cccc(C#N)c3)C2)CC1 | inactive |  |
| O=C(O)c1cc(S(=O)(=O)Nc2ccc(O)cc2)ccc1Cl | inactive |  |
| CCCCC#CC1C=CC(OC(C)=O)C(COC(C)=O)O1 (configuration not stated) | active: 3.55 µM |  |
| O=C(CCC(=O)CCN1CCCCC1)CCN1CCCCC1 | active: 0.631 µM |  |
| O=[N+]([O-])c1ccccc1S(=O)(=O)NC1CCCC1 | inactive |  |
